# Test results published in PubChem BioAssay AID1476 (National Center for Advancing Translational Sciences (NCATS), 2009).
# Among all 200,000 compounds or so, about 4,500 (2.2%) were called active. The shares of active, inactive and inconclusive entries below differ from those in the screen. The call rests on the fitted dose curve; in most records, active means well fitted inhibition curve with a large enough effect; inconclusive means small, poorly fitted or top-dose-only effect, or effect the other way; inactive means flat fitted curve, though single readings scatter. Where the call is inconclusive, the potency comes from a doubtful curve fit.
# Target: Cruzipain (Trypanosoma cruzi) (UniProt P25779)
# Sequence of UniProt P25779 (P25779 whole entry, looked up): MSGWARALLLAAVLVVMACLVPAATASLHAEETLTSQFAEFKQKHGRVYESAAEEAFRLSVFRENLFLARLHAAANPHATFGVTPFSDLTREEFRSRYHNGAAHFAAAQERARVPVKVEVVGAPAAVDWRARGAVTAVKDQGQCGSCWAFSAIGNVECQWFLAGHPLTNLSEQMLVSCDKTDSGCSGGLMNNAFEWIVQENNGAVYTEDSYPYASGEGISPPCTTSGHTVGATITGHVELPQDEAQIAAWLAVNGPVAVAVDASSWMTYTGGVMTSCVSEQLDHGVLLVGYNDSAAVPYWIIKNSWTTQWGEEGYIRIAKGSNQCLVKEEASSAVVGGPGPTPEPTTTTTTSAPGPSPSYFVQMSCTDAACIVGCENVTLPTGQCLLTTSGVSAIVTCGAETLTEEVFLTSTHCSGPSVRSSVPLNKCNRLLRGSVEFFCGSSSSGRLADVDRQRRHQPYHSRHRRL
# Experiment: qHTS Assay for Promiscuous and Specific Inhibitors of Cruzain (without detergent); further: nearly all actives have a fitted effect of over 40% in size;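 on max response, negative = inhibition: plate controls were enzyme without inhibitor for no effect and buffer without enzyme for full effect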
# Conditions: purified cruzain, Z-FR-AMC fluorescence, no detergent
# Outline: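 Detergent-free condition (0.00005% Triton X-100) in acetate buffer pH 5.5 with DTT. 1.5 nM enzyme and compound were pre-mixed 15 min, then 2 uM Z-FR-AMC substrate added; reaction progress from fluorescence change between first and third reads (60 s).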
# Potency means the concentration at half of the fitted maximal effect; tags describe the fitted curve by direction and shape.
SMILES,"max response, negative = inhibition",Potency
CCC(C)(C)NC(=O)C1CCN(S(=O)(=O)c2c(C)noc2/C=C/c2ccc(C)cc2)CC1,inactive: -1.44%,–
COc1ccc(NC(=O)C2=CC(c3ccc4c(c3)OCO4)=NS(=O)(=O)N2C)cc1,–,"inconclusive: 20 µM [activator, partial curve]"
COc1ccc(-c2ccc(/C=N/N3C(=O)C4C5C=CC(C6CC56)C4C3=O)o2)c([N+](=O)[O-])c1 (stereo not given),–,"inconclusive: 31.6 µM [inhibitor, single point]"
COc1ccc(C(=O)Nc2ccccc2C(=O)N/N=C/c2ccc(O)c(OC)c2)cc1,–,"inconclusive: 39.8 µM [activator, single point]"
CCOC(=O)C1CCCN(S(=O)(=O)c2cc3c4c(c2)CC(=O)N4CCC3)C1 (stereo not given),inactive: 7.92%,–
CCOc1ccc(OCC)c(NS(=O)(=O)c2c(C(=O)N3CCCCCC3)c(C)n(C)c2C)c1,–,"inconclusive: 39.8 µM [activator, single point]"
O=C(CSc1nnc(-c2ccccc2)c(-c2ccccc2)n1)NC1CCCC1,inactive: -18.8%,–
CCOc1ccc(C(=O)c2cn(CC(=O)Nc3ccc(F)cc3)c3cc4c(cc3c2=O)OCCO4)cc1,–,"inconclusive: 2.51 µM [inhibitor, partial curve, poor fit]"
COc1cccc(C(=O)O/N=C/c2ccc(Sc3ccc(C)cc3)nc2)c1,–,"inconclusive: 39.8 µM [inhibitor, single point]"
Cn1c(=O)cc(OCC(=O)NCCCN2CCN(Cc3ccccc3)CC2)c2ccccc21,inactive: 3.2%,–
CN(C)S(=O)(=O)c1cccc(NC(=O)COC(=O)c2cn(-c3ccccc3)nc2-c2ccccc2)c1,–,"inconclusive: 39.8 µM [inhibitor, single point]"
Clc1ccc(Cn2nnc(-c3ccc(CN4CCOCC4)cc3)n2)cc1,–,"inconclusive: 31.6 µM [activator, single point]"
Cc1ccc(NC(=O)Nc2nc(-c3ccc(C)s3)cs2)cc1,–,active: 25.1 µM
COc1ccc(NCc2cc3cc4c(cc3n(CC(=O)Nc3ccc(F)cc3)c2=O)OCCO4)cc1,–,active: 20 µM
Cc1ccc(C(=O)NNC(=S)NC(=O)c2ccc(Cl)cc2Cl)cc1,–,"inconclusive: 2 µM [inhibitor, partial curve, poor fit]"
COc1cccc(C(=O)N(Cc2cccnc2)c2nc3c(OC)ccc(C)c3s2)c1OC,–,"inconclusive: 10 µM [activator, partial curve]"
Cc1ccc(NC(=O)C(=O)NCCc2sc(-c3ccc(Cl)cc3)nc2C)cc1C,inactive: -15.6%,–
CCOC(=O)c1[nH]c(C)c(/C(O)=C2\C(=O)C(=O)N(CCCN(C)C)C2c2cccnc2)c1C (stereo not given),–,"inconclusive: 39.8 µM [activator, single point]"
NC(=O)C1CCN(c2ncnc3c2c(-c2ccccc2)cn3-c2ccccc2)CC1,–,"inconclusive: 31.6 µM [activator, single point]"
N=C1S/C(=C\c2cn[nH]c2-c2ccc(F)cc2)C(=O)N1c1ccccc1F,–,"inconclusive: 39.8 µM [inhibitor, single point]"
Cc1cc(C)cc(NC(=O)Cn2c(=O)n(-c3cc(C)cc(C)c3)c(=O)c3oc4ccccc4c32)c1,inactive: -28%,–
CCCCC(=O)Nc1ccc(C(=O)Nc2ccc3c(c2)OCO3)cc1,–,"inconclusive: 31.6 µM [inhibitor, single point]"

SMILES,"max response, negative = inhibition",Potency
CCOc1ccc(CNC(=O)C2CCN(S(=O)(=O)c3cn(C)cn3)CC2)cc1,inactive: -11.1%,–
COCCn1c(C)cc(C(=O)CSc2cc(C)c3ccc(OC)cc3n2)c1C,–,"inconclusive: 39.8 µM [activator, single point]"
Cc1cc(C(F)F)n2nc(C(=O)Nc3cccc(Cl)c3C)nc2n1,inactive: -15%,–
Cc1ccc(N(C(C)C(=O)Nc2ccc(S(=O)(=O)N3CCOCC3)cc2)S(C)(=O)=O)cc1C (stereo not given),–,"inconclusive: 31.6 µM [activator, single point]"
CS(=O)(=O)N1CCN(c2ccc(NC(=O)c3ccc(-c4ccc(Cl)cc4)o3)cc2)CC1,–,"inconclusive: 31.6 µM [inhibitor, single point]"
CCC(=O)Nc1nnc(SCCN2CCOCC2)s1,–,"inconclusive: 1.58 µM [activator, single point]"
N=c1c(C(=O)NCC2CCCO2)cc2c(=O)n3ccccc3nc2n1CCCO (stereo not given),–,"inconclusive: 39.8 µM [inhibitor, single point]"
CCc1noc(-c2ccc(NCc3ccccc3)c([N+](=O)[O-])c2)n1,–,"inconclusive: 5.01 µM [activator, single point]"
Cc1ccc(Oc2nc(CN3CCOCC3)nc3sc4c(c23)CCC(C)C4)cc1C (stereo not given),–,"inconclusive: 31.6 µM [activator, single point]"
Cc1ccccc1OCC(=O)O/N=C(\N)Cc1cccs1,–,"inconclusive: 12.6 µM [inhibitor, partial curve]"
Cc1ccc(-c2csc(NC(=O)c3cccc(S(=O)(=O)N4CCN(C)CC4)c3)n2)cc1,inactive: -3.67%,–
CC(=O)OC1CC(OC(C)=O)[C@]2(C)C(CC(OC(C)=O)[C@]3(C)C2CC[C@@]2(C)C(c4ccoc4)C[C@H]4O[C@]432)C1(C)C (stereo not given in full),–,"inconclusive: 39.8 µM [activator, single point]"
O=C(N/N=C/c1cccc([N+](=O)[O-])c1)c1ccc(COc2ccccc2-c2ccccc2)cc1,–,active: 20 µM
Cc1ccn2cc(-c3ccc(NC(=O)c4ccco4)cc3)nc2c1,inactive: -9.63%,–
CCOC(=O)C1CCN(C(=O)CN(Cc2ccc(Cl)cc2)S(C)(=O)=O)CC1,–,"inconclusive: 31.6 µM [activator, single point]"
c1ccc(C2=Nc3cccc4cccc(c34)N2)cc1,–,"inconclusive: 31.6 µM [inhibitor, single point]"
Oc1ccc2ccccc2c1C=Nc1ccc(N2CCOCC2)cc1,–,"inconclusive: 31.6 µM [activator, single point]"
COc1cccc(NC(=O)c2sc3nc(C)c(C(=O)Nc4ccc(C)cc4C)c(-c4ccccc4Cl)c3c2N)c1,–,"inconclusive: 20 µM [inhibitor, single point]"
Cc1cc(C)cc(N(CC(=O)N2CC=C(c3ccccc3)CC2)S(=O)(=O)c2c(C)noc2C)c1,–,"inconclusive: 0.199 µM [inhibitor, single point]"
Cc1cccc(COCC(Cc2ccccc2)N2CCN(C(=O)c3ccc(C(F)(F)F)cc3)CCC2=O)c1 (stereo not given),–,"inconclusive: 20 µM [activator, single point]"
Fc1ccc(NCc2cccn2-c2nnc(N3CCOCC3)s2)cc1,inactive: -5.01%,–
CC1CCN(c2ncnc3c2cnn3-c2ccc(F)cc2)CC1,inactive: -17.1%,–

SMILES,"max response, negative = inhibition",Potency
COc1ccc(CCCc2nnc(SCC(=O)N/N=C\c3ccc(O)c(OC)c3)o2)cc1C,–,"inconclusive: 39.8 µM [activator, single point]"
O=S(=O)(N=S(N1CCCCC1)N1CCCCC1)c1ccccc1,inactive: 6.39%,–
Cn1/c(=N/NC(=O)c2cccc(OC(F)F)c2)sc2ccccc21,–,"inconclusive: 20 µM [inhibitor, partial curve]"
CCCOC(=O)C1[C@H]2C(=O)N(CC3CCCO3)C[C@]23C=C[C@H]1O3 (stereo not given in full),–,"inconclusive: 31.6 µM [activator, single point]"
O=C(Nc1ccccc1N1CCCC1)c1ccc(Br)o1,inactive: -5.97%,–
O=C(COc1ccccc1)Nc1ccc2c(c1)Cc1cc(NC(=O)COc3ccccc3)ccc1-2,–,active: 2.51 µM
O=C(O)/C(Cc1ccc([N+](=O)[O-])cc1)=N/O,inactive: -7.89%,–
Cn1c2ccccc2c2c(C(=O)N3CCN(c4ccccc4)CC3)cn(C3CCCC3)c(=O)c21,–,"inconclusive: 31.6 µM [inhibitor, single point]"
Cc1nc2cc3ccccc3cc2n1C,–,"inconclusive: 20 µM [inhibitor, single point]"
Cc1ccc(O)c(C(=O)c2cnc3c(c2)CN(CCC(C)C)C(=O)N3)c1,–,active: 10 µM
O=C(N/N=C/c1c[nH]c2ccccc12)c1cccc([N+](=O)[O-])c1,inactive: 1.29%,–
COc1cccc(-n2c(SCC(=O)Nc3cc(C)ccc3C)nc3c(oc4ccccc43)c2=O)c1,inactive: -8.57%,–
CCC12C=CCN3CCC4(c5cc(Br)c(OC)cc5N(C)C4C(O)(C(=O)OC)C1OC(C)=O)C32 (stereo not given),–,"inconclusive: 31.6 µM [activator, single point]"
Cc1occc1C(=O)Nc1sc2c(c1C(N)=O)CCC(C(C)(C)C)C2 (stereo not given),–,"inconclusive: 39.8 µM [inhibitor, single point]"
CCOC(=O)c1oc2ccc(S(=O)(=O)n3nc(-c4ccccc4OC)cc3N)cc2c1C,inactive: -16.2%,–
Cc1cc2nc(-c3ccc(SCC(=O)N4CCOCC4)nc3)[nH]c2cc1C,–,"inconclusive: 39.8 µM [activator, single point]"
COc1ccc(-c2nn3c(-c4ccccn4)nnc3s2)cc1OC,inactive: -13.2%,–
CCCCCOc1ccc(N2C(=O)CC(N(O)c3ccccc3)C2=O)cc1 (stereo not given),–,active: 25.1 µM
COc1ccccc1CNc1ncnc2ccc(-c3ccoc3)cc12,inactive: -8.64%,–
O=C(N/N=C/c1ccc2c(c1)OCO2)c1cc(-c2ccc(F)cc2)nc2ccccc12,–,"inconclusive: 39.8 µM [inhibitor, single point]"
CCCCCCC/C=C\CCCCCCCCC(=O)O,–,"inconclusive: 39.8 µM [activator, single point]"
